# Laboratory results taken from the supplement of paper PMC7826260.
# The other results are listed elsewhere or left out. One pool of 16,384 single-stranded DNAs met each Rep nickase domain in vitro at 3 µM enzyme and 37 °C for 1 h; the strands have 90 letters, of which the middle is given. A value is the log2 ratio of uncut reads to the pool without enzyme; uncut sequences lie near 0, cut ones below; no hit call is given. Counts are relative to all reads, so uncut sequences can rise above 0 when many others are cut.
# What was measured:
# Assay in all cases: uncleaved DNA left, log2 of reads against the no-enzyme library (log2 ratio); higher = less cleavage (more negative = more Rep cleavage of the k-mer); sequences stand for … in CTCGTCCG…ACCGGAGA
# [1] = test system: T1, Rep nickase domain of Muscovy duck circovirus
# T1 sequence (residues 1-111, tag not shown): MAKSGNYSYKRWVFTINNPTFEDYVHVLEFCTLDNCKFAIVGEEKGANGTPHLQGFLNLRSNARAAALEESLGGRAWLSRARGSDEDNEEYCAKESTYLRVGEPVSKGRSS
# Description: (§1)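 A pool of 90-nt single-stranded DNAs with seven random bases just before the constant AC of the nick site (name = the seven bases) was cut by 3 µM recombinant His6-SUMO-tagged Rep nickase domain (300 nM DNA, 50 mM HEPES pH 8.0, 50 mM NaCl, 1 mM MnCl2, 1 h, 37 °C, three replicates). Uncut DNA was amplified and sequenced.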
# [2] = test system: T2, Rep nickase domain of banana bunchy top virus
# T2 sequence (residues 1-94, tag not shown): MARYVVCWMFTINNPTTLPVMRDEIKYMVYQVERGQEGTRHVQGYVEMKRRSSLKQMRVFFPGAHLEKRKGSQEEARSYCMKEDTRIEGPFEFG
# Description: as §1
# [3] = test system: T3, Rep nickase domain of cabbage leaf curl virus
# T3 sequence (residues 1-116, tag not shown): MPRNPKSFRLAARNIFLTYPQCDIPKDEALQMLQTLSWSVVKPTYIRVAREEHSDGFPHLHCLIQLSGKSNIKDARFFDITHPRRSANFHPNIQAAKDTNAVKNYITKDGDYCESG
# Description: as §1
# [4] = test system: T4, Rep nickase domain of chickpea chlorotic dwarf virus
# T4 sequence (residues 1-124, tag not shown): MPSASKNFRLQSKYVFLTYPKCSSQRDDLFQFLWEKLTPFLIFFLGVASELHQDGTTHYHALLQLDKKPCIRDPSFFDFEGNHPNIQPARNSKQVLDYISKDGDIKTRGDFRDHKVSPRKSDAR
# Description: as §1
# [5] = test system: T5, Rep nickase domain of faba bean necrotic yellows virus
# T5 sequence (residues 1-98, tag not shown): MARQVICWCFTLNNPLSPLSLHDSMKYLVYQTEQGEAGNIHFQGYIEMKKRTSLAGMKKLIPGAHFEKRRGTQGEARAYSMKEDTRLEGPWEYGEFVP
# Description: as §1
# [6] = test system: T6, Rep nickase domain of maize striate mosaic virus
# T6 sequence (residues 1-117, tag not shown): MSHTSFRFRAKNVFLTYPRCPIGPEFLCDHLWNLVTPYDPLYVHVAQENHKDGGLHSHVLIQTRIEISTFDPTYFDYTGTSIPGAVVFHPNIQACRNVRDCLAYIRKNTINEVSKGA
# Description: as §1
# [7] = test system: T7, Rep nickase domain of porcine circovirus 2
# T7 sequence (residues 2-116, tag not shown): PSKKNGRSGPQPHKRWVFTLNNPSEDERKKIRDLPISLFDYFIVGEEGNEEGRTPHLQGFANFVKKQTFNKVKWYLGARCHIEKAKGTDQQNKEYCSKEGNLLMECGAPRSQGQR
# Description: as §1
# [8] = test system: T8, Rep nickase domain of tomato golden mosaic virus
# T8 sequence (residues 1-124, tag not shown): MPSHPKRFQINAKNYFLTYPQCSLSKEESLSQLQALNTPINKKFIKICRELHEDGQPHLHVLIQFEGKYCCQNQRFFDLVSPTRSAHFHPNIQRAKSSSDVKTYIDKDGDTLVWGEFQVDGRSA
# Description: as §1
# [9] = test system: T9, Rep nickase domain of tomato yellow leaf curl virus
# T9 sequence (residues 1-136, tag not shown): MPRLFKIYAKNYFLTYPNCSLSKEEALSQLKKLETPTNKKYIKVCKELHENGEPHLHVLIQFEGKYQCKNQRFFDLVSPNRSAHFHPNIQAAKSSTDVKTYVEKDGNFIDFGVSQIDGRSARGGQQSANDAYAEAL
# Description: as §1
# [10] = test system: T10, Rep nickase domain of wheat dwarf virus
# T10 sequence (residues 1-137, tag not shown): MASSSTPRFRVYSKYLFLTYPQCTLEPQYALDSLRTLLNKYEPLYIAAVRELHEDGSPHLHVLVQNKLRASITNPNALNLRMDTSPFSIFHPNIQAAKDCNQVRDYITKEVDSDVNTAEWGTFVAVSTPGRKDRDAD
# Description: as §1
Sequence,uncleaved DNA left (log2) [1],uncleaved DNA left (log2) [2],uncleaved DNA left (log2) [3],uncleaved DNA left (log2) [4],uncleaved DNA left (log2) [5],uncleaved DNA left (log2) [6],uncleaved DNA left (log2) [7],uncleaved DNA left (log2) [8],uncleaved DNA left (log2) [9],uncleaved DNA left (log2) [10]
CCTTCAT,-0.116,-0.0482,-0.158,-1.11,-0.117,-0.886,-0.404,-0.169,-0.159,-0.0869
GTAGTTC,0.0512,0.0484,0.431,0.729,-0.0261,1.6,0.0654,0.0476,0.139,0.0479
CTAACCT,-0.065,-0.0731,-0.335,-2.57,0.0253,-0.62,-0.972,-0.0137,0.0256,-0.108
TAGAACG,-0.108,0.0108,-0.893,-0.879,-0.0537,-1.33,0.0945,-0.0616,-0.0691,-0.167
AATAGAC,0.0223,0.0409,0.174,0.429,0.0934,-0.295,0.273,0.0712,0.0385,0.0192
GGTCGTA,0.135,0.179,0.529,1.17,0.164,1.74,0.165,0.122,0.261,0.283
GATGCAT,-0.0557,0.0157,0.453,1.28,-0.0397,1.35,0.086,-0.122,0.0165,0.0943
TGCAAAT,-0.0391,0.0837,0.0591,-0.114,-0.0152,-0.366,-0.136,-0.0151,0.042,0.0532
AATTGGG,0.0497,-0.0556,-0.732,-0.297,0.0471,-0.824,0.0576,0.0446,0.0712,0.00427
ACCAACT,-0.0897,-0.0189,-0.51,-2.73,0.0698,-0.686,-0.0573,-0.101,-0.1,-0.0758
GCCTTCG,-0.0698,-0.00878,-0.707,-0.355,-0.0312,-0.875,0.153,0.0573,0.069,-0.154
AAGAAGA,0.0635,0.0904,0.179,0.39,0.146,-0.355,0.0448,0.0788,-0.00476,0.0843
TAGCCAG,0.11,0.0455,-0.372,-0.584,0.0934,-0.924,0.136,-0.0825,0.0788,0.135
GTCAAGG,0.19,0.263,0.428,1.15,0.139,1.96,0.201,0.258,0.177,0.264
TCAGCGA,0.0161,-0.0999,-0.566,-0.304,0.00152,-1.04,0.146,-0.0579,0.0487,-0.118
CCCTGCA,-0.0162,0.0174,-0.58,-0.835,-0.0695,-0.954,-0.213,-0.00071,0.12,-0.114
CAGCTGC,-0.0838,0.0393,0.174,0.988,0.0178,1.16,0.0933,-0.171,-0.232,-0.0934
GACTCAG,0.0396,0.0293,-0.524,-0.544,0.0884,-0.868,0.04,0.00346,0.0503,-0.0262
TTGTCTC,-0.17,-0.215,0.0752,-0.099,-0.168,-0.287,-0.442,-0.221,-0.088,-0.165
ATGTCTA,-0.0127,-0.172,-0.132,-1.15,-0.0443,-0.518,-0.361,0.0352,0.0152,0.0317

Sequence,uncleaved DNA left (log2) [1],uncleaved DNA left (log2) [2],uncleaved DNA left (log2) [3],uncleaved DNA left (log2) [4],uncleaved DNA left (log2) [5],uncleaved DNA left (log2) [6],uncleaved DNA left (log2) [7],uncleaved DNA left (log2) [8],uncleaved DNA left (log2) [9],uncleaved DNA left (log2) [10]
CACACGT,0.0933,-0.0772,-0.171,-1.56,0.0788,-0.783,0.0522,-0.0301,-0.137,-0.113
ATAGTCA,0.0902,0.0222,-0.00148,-1.27,0.111,-0.569,0.0647,0.0796,0.124,0.151
AGCCCTT,0.178,0.0299,0.893,1.63,0.0485,2.21,-0.0644,-0.00893,-0.0909,0.192
TTTGCTT,-0.127,-0.0197,-0.541,-1.94,-0.045,-1.34,-0.125,-0.0696,-0.0463,-0.221
AGACGGT,-0.0756,-0.0745,0.256,0.511,-0.00749,1.35,-0.0166,0.00499,-0.142,0.0303
GGTGCAC,0.0284,0.117,0.681,1.64,-0.123,2.06,0.186,-0.00415,0.0847,0.0302
AAGCATT,0.173,-0.0136,0.0962,-1.7,0.0527,0.314,-2.98,0.0814,0.225,0.0627
CAAACTT,-0.179,-0.767,-3.31,-3.37,0.0453,-1.8,-2.99,-2.54,-0.0158,-2.89
CTCCAAC,0.024,-0.173,-0.15,-1.43,-0.126,-0.672,-0.00426,-0.115,-0.195,-0.128
GATTCCG,-0.0741,-0.0772,-0.539,-0.391,-0.0385,-0.925,-0.0112,-0.0898,-0.00738,-0.0942
ACGGCCT,0.156,-0.0104,-0.199,-0.773,0.0928,-0.0351,-0.07,0.0292,-0.24,-0.0289
TGTACAA,0.129,0.0146,0.244,0.393,-0.0564,0.587,0.075,-0.014,0.118,0.134
TAGTCCT,-2.42,-3.04,-1.71,-2.72,-2.38,0.267,-4.17,-0.27,0.0893,-0.208
TGAATCG,-0.0577,-0.089,-0.895,-0.332,0.0115,-1.25,0.164,-0.195,-0.0141,-0.0799
GCTACGC,-0.0254,0.0167,-0.022,-0.0663,-0.0696,-0.379,0.0933,-0.0615,0.0533,-0.0929
GGCCGGG,-0.103,-0.0439,0.71,1.59,0.0177,1.99,0.127,0.135,0.00955,0.018
GTCAGGT,-0.0351,0.0243,0.273,0.958,-0.155,1.7,0.0393,-0.0144,-0.0226,-0.00497
TGTCCGA,0.115,0.101,-0.0618,-0.0128,0.0278,-0.598,0.00833,-0.0277,-0.0439,0.158
CATGACA,0.0659,0.0581,-0.0304,-2,-0.0361,-0.343,0.0203,0.0347,0.0872,0.113
ATACAGC,0.0172,0.0118,-0.338,-0.697,0.0374,-0.88,0.23,-0.00267,0.0874,0.0261

Sequence,uncleaved DNA left (log2) [1],uncleaved DNA left (log2) [2],uncleaved DNA left (log2) [3],uncleaved DNA left (log2) [4],uncleaved DNA left (log2) [5],uncleaved DNA left (log2) [6],uncleaved DNA left (log2) [7],uncleaved DNA left (log2) [8],uncleaved DNA left (log2) [9],uncleaved DNA left (log2) [10]
GACGAGC,0.251,0.163,0.483,1.29,0.228,0.888,0.23,0.315,0.225,0.292
ACCCCTG,0.0721,0.0593,-0.23,-0.323,0.142,-0.493,0.0917,0.103,-0.0247,-0.013
TAGCTCG,-0.0331,-0.0252,-0.568,-0.661,0.0197,-1.09,-0.00177,-0.043,-0.143,-0.195
GACACAT,-0.0643,-0.0405,0.597,1.03,-0.104,1.69,0.0366,-0.15,-0.0135,0.0454
GGTAAGA,-0.0119,0.021,0.609,1.35,0.000384,1.75,0.262,0.0672,0.0617,0.136
AGTGTAA,0.014,-0.0372,0.0287,0.409,-0.138,0.941,-0.307,0.031,-0.0368,-0.0316
TAACACC,0.0366,0.0166,-1.89,-2.64,0.0401,-0.47,-0.134,-0.0609,-0.0657,-0.229
GAATTCT,-3.18,-0.131,-3.18,-2.81,0.00277,-1.98,-3.57,-2.99,-0.0317,-2.99
TATATGT,-0.192,-0.348,-0.21,-1.01,-0.0348,-0.636,-0.81,-0.0655,-0.039,-0.0355
AGGGACC,0.0122,0.172,0.634,1.63,-0.0217,1.88,0.173,0.0973,0.134,0.124
ATGGACC,0.00841,-0.0445,0.134,0.747,-0.101,0.664,0.0128,-0.105,0.00102,0.0207
GAGTGGA,-0.0669,0.00389,0.395,0.549,0.0222,0.556,-2.13,0.0989,0.0609,0.0328
CACCAGG,0.00321,0.0341,0.164,0.626,0.0161,-0.0487,0.0955,-0.0165,0.016,0.0251
ATTGTTG,0.149,0.104,-0.71,-0.313,0.193,-1.18,0.167,0.0129,0.113,0.00971
TCGCAAC,0.0227,-0.059,0.0406,-0.983,-0.0497,-0.52,-0.162,-0.0085,-0.148,-0.139
AGTATTC,0.043,0.0736,0.198,0.313,0.0717,-0.316,-0.1,0.049,0.0377,-0.00695
TCTTAAA,-0.103,-0.0654,-0.00912,-0.229,-0.0302,-0.299,-0.0718,0.0643,-0.0741,-0.0807
GAAATCT,0.101,0.141,-1.14,-2.41,0.0392,0.587,-0.638,-0.0333,0.015,-0.254
TTCTAGG,0.108,0.139,0.61,1.49,0.105,1.96,0.239,0.217,-0.0175,0.225
CGCCTTC,-0.00468,-0.0271,0.00906,-0.0994,-0.0567,-0.375,0.0149,-0.129,-0.156,0.0105
